# Assay results reported in the supplement of paper PMC8728848.
# The list shows a part of the results.
# B1: Gal 8 (Mus musculus), Q9JL15 (protein)
# chain: MGGSHHHHHHGMASMLSLNNLQNIIYNPIIPYVGTITEQLKPGSLIVIRGHVPKDSERFQVDFQLGNSLKPRADVAFHFNPHFKRSSCIVCNTLTQEKWGWEEITYDMPFRKEKSFEIVFMVLKNKFQVAVNGRHVLLYAHRISPEQIDTVGIYGKVNIHSIGFRFSSASALPHTLGDLQSMETSALGLTQINRENIQKPGKLQLSLPFEARLNASMGPGRTVVIKGEVNTNARSFNVDLVAGKTRDIALHLNPHLNVKAFVRNSFLQDAWGEEERNITCFPFSSGMYFEMIIYCDVREFKVAINGVHSLEYKHRFKDLSSIDTLSVDGDIRLLDVRSW
# Assays:
# Assay in all cases: glycan array binding signal (z-score within array); higher = stronger binding
# Details in all cases: glycan notation: IUPAC condensed, linker removed; mutation: R82H, R255H
# [1] = biological target: Fuc(a1-2)[Gal(a1-3)]Gal(b1-4)GlcNAc(b1-2)Man(a1-3)[Fuc(a1-2)[Gal(a1-3)]Gal(b1-4)GlcNAc(b1-2)Man(a1-6)]Man(b1-4)GlcNAc(b1-4)GlcNAc
# Method in brief: (§1)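 Glycan array data came from 3228 arrays in the Consortium for Functional Glycomics database, and only arrays with an available protein sequence were kept. Glycan names were put into IUPAC-condensed notation, and columns mapping to the same glycan were averaged. The binding signal is a within-array Z-score, averaged across arrays of one protein sequence run at different concentrations or buffers and across linkers. A negative Z-score can be read as non-binding.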
# [2] = biological target: Fuc(a1-2)[Gal(a1-3)]Gal(b1-4)GlcNAc(b1-2)Man(a1-3)[Fuc(a1-2)[Gal(a1-3)]Gal(b1-4)GlcNAc(b1-2)Man(a1-6)]Man(b1-4)GlcNAc(b1-4)[Fuc(a1-6)]GlcNAc
# Method in brief: as §1
# [3] = biological target: Fuc(a1-2)[Gal(a1-3)]Gal(b1-4)GlcNAc(b1-3)GalNAc
# Method in brief: as §1
# [4] = biological target: Fuc(a1-2)[Gal(a1-3)]Gal(b1-4)GlcNAc(b1-3)[Fuc(a1-2)[Gal(a1-3)]Gal(b1-4)GlcNAc(b1-6)]GalNAc
# Method in brief: as §1
# [5] = biological target: Fuc(a1-2)[Gal(a1-3)]Gal(b1-4)GlcNAc(b1-6)GalNAc
# Method in brief: as §1
# [6] = biological target: Fuc(a1-2)[Gal(a1-3)]Gal(b1-4)[Fuc(a1-3)]Glc
# Method in brief: as §1
# [7] = biological target: Fuc(a1-2)[Gal(a1-3)]Gal(b1-4)[Fuc(a1-3)]GlcNAc
# Method in brief: as §1
# [8] = biological target: Fuc(a1-2)[Gal(a1-3)]Gal(b1-4)[Fuc(a1-3)]GlcNAc(b1-3)GalNAc
# Method in brief: as §1
# [9] = biological target: Fuc(a1-2)[Gal(a1-4)]Gal(b1-4)GlcNAc
# Method in brief: as §1
# [10] = biological target: Fuc(a1-2)[GalNAc(a1-3)]Gal
# Method in brief: as §1
# [11] = biological target: Fuc(a1-2)[GalNAc(a1-3)]Gal(b1-3)GalNAc(a1-3)[Fuc(a1-2)]Gal(b1-4)GlcNAc
# Method in brief: as §1
# [12] = biological target: Fuc(a1-2)[GalNAc(a1-3)]Gal(b1-3)GalNAc(b1-3)Gal(a1-4)Gal(b1-4)Glc
# Method in brief: as §1
# [13] = biological target: Fuc(a1-2)[GalNAc(a1-3)]Gal(b1-3)GlcNAc
# Method in brief: as §1
# [14] = biological target: Fuc(a1-2)[GalNAc(a1-3)]Gal(b1-3)GlcNAc(b1-2)Man(a1-3)[Fuc(a1-2)[GalNAc(a1-3)]Gal(b1-3)GlcNAc(b1-2)Man(a1-6)]Man(b1-4)GlcNAc(b1-4)GlcNAc
# Method in brief: as §1
# [15] = biological target: Fuc(a1-2)[GalNAc(a1-3)]Gal(b1-3)GlcNAc(b1-2)Man(a1-3)[Fuc(a1-2)[GalNAc(a1-3)]Gal(b1-3)GlcNAc(b1-2)Man(a1-6)]Man(b1-4)GlcNAc(b1-4)[Fuc(a1-6)]GlcNAc
# Method in brief: as §1
# [16] = biological target: Fuc(a1-2)[GalNAc(a1-3)]Gal(b1-3)GlcNAc(b1-3)GalNAc
# Method in brief: as §1
# [17] = biological target: Fuc(a1-2)[GalNAc(a1-3)]Gal(b1-3)GlcNAc(b1-6)GalNAc
# Method in brief: as §1
# [18] = biological target: Fuc(a1-2)[GalNAc(a1-3)]Gal(b1-4)Glc
# Method in brief: as §1
# [19] = biological target: Fuc(a1-2)[GalNAc(a1-3)]Gal(b1-4)GlcNAc
# Method in brief: as §1
# [20] = biological target: Fuc(a1-2)[GalNAc(a1-3)]Gal(b1-4)GlcNAc(b1-2)Man
# Method in brief: as §1
# [21] = biological target: Fuc(a1-2)[GalNAc(a1-3)]Gal(b1-4)GlcNAc(b1-2)Man(a1-3)[Fuc(a1-2)[GalNAc(a1-3)]Gal(b1-4)GlcNAc(b1-2)Man(a1-6)]Man(b1-4)GlcNAc(b1-4)GlcNAc
# Method in brief: as §1
# [22] = biological target: Fuc(a1-2)[GalNAc(a1-3)]Gal(b1-4)GlcNAc(b1-2)Man(a1-3)[Fuc(a1-2)[GalNAc(a1-3)]Gal(b1-4)GlcNAc(b1-2)Man(a1-6)]Man(b1-4)GlcNAc(b1-4)[Fuc(a1-6)]GlcNAc
# Method in brief: as §1
# [23] = biological target: Fuc(a1-2)[GalNAc(a1-3)]Gal(b1-4)GlcNAc(b1-3)Gal(b1-4)GlcNAc
# Method in brief: as §1
# [24] = biological target: Fuc(a1-2)[GalNAc(a1-3)]Gal(b1-4)GlcNAc(b1-3)Gal(b1-4)GlcNAc(b1-3)Gal(b1-4)GlcNAc
# Method in brief: as §1
# [25] = biological target: Fuc(a1-2)[GalNAc(a1-3)]Gal(b1-4)GlcNAc(b1-3)GalNAc
# Method in brief: as §1
# [26] = biological target: Fuc(a1-2)[GalNAc(a1-3)]Gal(b1-4)GlcNAc(b1-3)[Fuc(a1-2)[GalNAc(a1-3)]Gal(b1-4)GlcNAc(b1-6)]GalNAc
# Method in brief: as §1
# [27] = biological target: Fuc(a1-2)[GalNAc(a1-3)]Gal(b1-4)GlcNAc(b1-6)GalNAc
# Method in brief: as §1
# [28] = biological target: Fuc(a1-2)[GalNAc(a1-3)]Gal(b1-4)[Fuc(a1-3)]GlcNAc
# Method in brief: as §1
# [29] = biological target: Fuc(a1-2)[GalNAc(a1-3)]Gal(b1-4)[Fuc(a1-3)]GlcNAc(b1-3)GalNAc
# Method in brief: as §1
# [30] = biological target: Fuc(a1-2)[GalNAc(a1-4)]Gal(b1-4)GlcNAc
# Method in brief: as §1
# [31] = biological target: Fuc(a1-2)[GalNAc(b1-3)]Gal
# Method in brief: as §1
# Fuc(a1-3)GlcNAc = biological target: Fuc(a1-3)GlcNAc
# Method in brief: as §1
# [32] = biological target: Fuc(a1-3)[Gal(b1-4)]Glc6S
# Method in brief: as §1
# [33] = biological target: Fuc(a1-3)[Gal(b1-4)]GlcNAc
# Method in brief: as §1
# [34] = biological target: Fuc(a1-3)[Gal(b1-4)]GlcNAc(b1-2)Man
# Method in brief: as §1
# [35] = biological target: Fuc(a1-3)[Gal(b1-4)]GlcNAc(b1-2)Man(a1-3)[Fuc(a1-3)[Gal(b1-4)]GlcNAc(b1-2)Man(a1-6)]Man(b1-4)GlcNAc(b1-4)GlcNAc
# Method in brief: as §1
# [36] = biological target: Fuc(a1-3)[Gal(b1-4)]GlcNAc(b1-2)Man(a1-3)[Fuc(a1-3)[Gal(b1-4)]GlcNAc(b1-2)Man(a1-6)]Man(b1-4)GlcNAc(b1-4)[Fuc(a1-6)]GlcNAc
# Method in brief: as §1
binder,measurement,setting,value
B1,glycan array binding signal (z-score),[1],2.92
same,glycan array binding signal (z-score),[2],0.358
same,glycan array binding signal (z-score),[3],-0.259
same,glycan array binding signal (z-score),[4],0.101
same,glycan array binding signal (z-score),[5],-0.168
same,glycan array binding signal (z-score),[6],-0.247
same,glycan array binding signal (z-score),[7],-0.209
same,glycan array binding signal (z-score),[8],-0.24
same,glycan array binding signal (z-score),[9],-0.239
same,glycan array binding signal (z-score),[10],-0.248
same,glycan array binding signal (z-score),[11],-0.213
same,glycan array binding signal (z-score),[12],-0.253
same,glycan array binding signal (z-score),[13],0.707
same,glycan array binding signal (z-score),[14],7.3
same,glycan array binding signal (z-score),[15],-0.149
same,glycan array binding signal (z-score),[16],-0.205
same,glycan array binding signal (z-score),[17],2.34
same,glycan array binding signal (z-score),[18],-0.185
same,glycan array binding signal (z-score),[19],-0.184
same,glycan array binding signal (z-score),[20],-0.056
same,glycan array binding signal (z-score),[21],6.58
same,glycan array binding signal (z-score),[22],-0.158
same,glycan array binding signal (z-score),[23],-0.08
same,glycan array binding signal (z-score),[24],0.31
same,glycan array binding signal (z-score),[25],-0.198
same,glycan array binding signal (z-score),[26],0.117
same,glycan array binding signal (z-score),[27],-0.255
same,glycan array binding signal (z-score),[28],-0.236
same,glycan array binding signal (z-score),[29],-0.217
same,glycan array binding signal (z-score),[30],-0.283
same,glycan array binding signal (z-score),[31],-0.313
same,glycan array binding signal (z-score),Fuc(a1-3)GlcNAc,-0.108
same,glycan array binding signal (z-score),[32],-0.137
same,glycan array binding signal (z-score),[33],-0.212
same,glycan array binding signal (z-score),[34],-0.217
same,glycan array binding signal (z-score),[35],-0.251
same,glycan array binding signal (z-score),[36],-0.218
